According to the supplement of paper PMC3334620:
The full ranking holds about 33,000 sequences; the median of “E-score (-0.5 to 0.5)” is about -0.053, and the highest 2% start at about 0.37. Some of the results follow.

Molecular target: Hap1 (UniProt P0CE41)
Test: PBM E-score (8-mer binding enrichment) (E-score (-0.5 to 0.5)); higher = stronger / more preferred TF binding; most listed sequences are background and not binding sites
Details: protein concentration: 200 nM; construct: GST-DNA-binding domain
Procedure, shortened: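 The E-score, a modified Wilcoxon-Mann-Whitney statistic, was computed by the Universal PBM Analysis Suite for every ungapped eight-base word pooled with its reverse complement. Scans behind it were normalised with masliner after bound GST-tagged yeast transcription factors were detected with fluorescent anti-GST. The proteins, at about 100-200 nM, had been applied to universal all-10-mer Agilent arrays made double-stranded by primer extension.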

Sequence of UniProt P0CE41 (P0CE41 whole entry): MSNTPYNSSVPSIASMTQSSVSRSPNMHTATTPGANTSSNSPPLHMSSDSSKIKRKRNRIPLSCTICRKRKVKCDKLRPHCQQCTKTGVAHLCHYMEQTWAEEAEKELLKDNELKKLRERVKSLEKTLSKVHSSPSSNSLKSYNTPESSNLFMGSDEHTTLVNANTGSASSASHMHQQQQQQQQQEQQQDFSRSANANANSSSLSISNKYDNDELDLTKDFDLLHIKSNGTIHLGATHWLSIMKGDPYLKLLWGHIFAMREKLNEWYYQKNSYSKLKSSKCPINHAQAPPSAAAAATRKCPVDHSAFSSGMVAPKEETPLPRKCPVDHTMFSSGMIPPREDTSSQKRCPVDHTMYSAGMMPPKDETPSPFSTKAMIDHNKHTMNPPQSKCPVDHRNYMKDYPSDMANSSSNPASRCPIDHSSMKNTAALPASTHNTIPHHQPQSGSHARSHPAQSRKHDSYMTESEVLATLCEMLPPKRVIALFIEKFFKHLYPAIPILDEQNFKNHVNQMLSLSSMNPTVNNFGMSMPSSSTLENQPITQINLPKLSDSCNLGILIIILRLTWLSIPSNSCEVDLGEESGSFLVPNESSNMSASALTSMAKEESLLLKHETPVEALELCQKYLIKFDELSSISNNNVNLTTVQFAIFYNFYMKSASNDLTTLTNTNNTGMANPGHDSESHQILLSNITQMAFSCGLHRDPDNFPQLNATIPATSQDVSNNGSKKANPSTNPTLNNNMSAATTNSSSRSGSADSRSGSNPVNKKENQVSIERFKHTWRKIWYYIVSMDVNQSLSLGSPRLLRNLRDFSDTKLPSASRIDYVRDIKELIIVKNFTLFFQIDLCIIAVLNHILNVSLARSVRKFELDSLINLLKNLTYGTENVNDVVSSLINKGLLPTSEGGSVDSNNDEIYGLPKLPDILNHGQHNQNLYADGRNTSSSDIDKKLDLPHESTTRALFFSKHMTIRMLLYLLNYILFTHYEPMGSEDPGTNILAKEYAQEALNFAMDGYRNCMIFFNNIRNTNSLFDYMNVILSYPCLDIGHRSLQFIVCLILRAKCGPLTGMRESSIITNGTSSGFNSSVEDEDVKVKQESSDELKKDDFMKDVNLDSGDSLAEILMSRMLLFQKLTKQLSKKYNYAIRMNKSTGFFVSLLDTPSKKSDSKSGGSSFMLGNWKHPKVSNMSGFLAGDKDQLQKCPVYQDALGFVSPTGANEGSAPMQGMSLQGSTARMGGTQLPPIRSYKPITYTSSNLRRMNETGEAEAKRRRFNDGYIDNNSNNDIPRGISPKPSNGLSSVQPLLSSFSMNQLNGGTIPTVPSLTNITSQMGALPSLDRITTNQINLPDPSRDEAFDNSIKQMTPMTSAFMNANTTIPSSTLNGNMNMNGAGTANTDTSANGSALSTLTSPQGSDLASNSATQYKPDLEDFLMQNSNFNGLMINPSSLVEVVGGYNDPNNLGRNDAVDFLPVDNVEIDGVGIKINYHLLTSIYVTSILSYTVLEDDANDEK

Sequence	PBM E-score
CGCCGCGA	0.213
CGTCCCAA	-0.136
CTCACCCC	0.075
CATCTCCC	0.104
CGACTGCA	-0.0641
AACCGACT	0.125
AACAAACC	0.178
AGTGACTA	-0.139
ACAGATGC	-0.196
AGCAGATC	-0.272
ATATTTGC	0.0549
ATCGCAGG	-0.203
GAGCGTGC	0.032
GCAGAGGC	-0.106
AAATAACG	0.164
ATCGCCTG	-0.0484
CGGGCGAG	0.319
AGACGCAA	-0.0396
GGGCAGAA	0.0923
CACTTTAG	-0.0543
ATTGAGAC	-0.1
GGATGTAA	0.256
GGATTCTA	0.0827
CTCGTAGC	-0.117
ATCTGTTC	-0.00788

Sequence	PBM E-score
GGCTCAAC	-0.099
CCGAAATC	0.401
CCCTTACG	-0.0397
CGTCTTAC	-0.199
TGTGCAAA	-0.321
CATATCTA	0.0111
AGCGGGTA	0.0635
AACACGCA	0.00552
CGTCTCCC	0.0505
AGACTTGA	-0.242
GCATGCGC	0.0178
AGTACAAT	-0.0788
TGTTGGAA	-0.0847
CATGCCCC	0.0313
CTGTCCAC	-0.0628
AAATATAA	0.0848
CCACGAGG	0.0462
ACTACAGC	0.0243
CCGGGCGA	0.376
AAACCGAG	0.267
ATGACACG	0.0111
AGCGTCGC	-0.0992
AGGACGGA	0.199
GCATAATA	-0.0527
AAGCAGGG	-0.0962

Sequence	PBM E-score
ACAATTTG	-0.197
AAACTGTA	-0.0605
GGTGGGGA	-0.0231
AGTGTAAT	-0.0838
CACTAAAC	-0.0365
AAACGGCG	0.162
AGCGAGGA	-0.0133
CATGAAAG	-0.0192
CATACGGA	0.289
CCGGGCGC	0.331
AGGGCAAA	-0.0601
GCTGCAAC	0.0221
GCGCAAAC	0.0375
ATGTGTTC	0.0657
GCCAGCAC	-0.187
TCCGGAAA	0.445
CGCACCCG	0.224
TCGACGAA	-0.157
GTTAGGAA	-0.0616
ATGCCCGC	0.271
CACATGAG	-0.348
CAACTACC	-0.0421
CGAGCGCA	0.126
TAGACGCA	-0.174
ACTTAAAC	-0.0625

Sequence	PBM E-score
GCTTGTTA	0.0177
GCCCTTTA	-0.0786
AATAAGCT	-0.00764
ACCACCAT	0.0801
GATTTAAA	-0.0644
CGTCTTGC	0.00364
AGGGCTTC	-0.117
ATCAAGAT	-0.0874
GGCCGATA	0.457
ACCTATCG	0.278
ATGGCTTA	-0.0789
TTCACGAA	-0.109
ACAAGGGG	-0.094
TACTTTAA	-0.111
CAGGCCCC	-0.129
CATTCCGG	0.322
CCAATATA	-0.15
GCCATTAC	0.0703
GCTATAGC	0.0502
AAGCTAGG	-0.0218
CAGCAATA	-0.104
CCCCAGTC	-0.0527
CCCATGCA	-0.152
TCTATAAA	-0.103
CATCTTAC	-0.254

Sequence	PBM E-score
ACAACTAT	-0.0364
AGCATAGG	-0.188
ATAGTCGA	-0.0533
CGGATATC	0.39
ACACTAGA	-0.095
AGGGGATG	-0.00603
AGATGCCG	0.175
AAGTAGGC	0.00443
ACGATGGA	-0.0959
CGGAACCA	0.311
CGGCCCAA	0.251
ATTGATGA	-0.0401
GACTAGCC	-0.0957
ACCGCGAG	0.0447
TTAGTAAA	-0.0612
ACATTTTG	-0.152
CCGAATAA	0.29
CCACAAAG	-0.00127
ACCCACAT	-0.0251
GTACGCTA	-0.153
ACAGAAGA	-0.0507
ACGGTGTG	-0.00778
CAACAACC	0.00665
AAGATCAT	-0.154
CTAAGTTA	-0.182

Sequence	PBM E-score
CCTCTGAC	-0.106
CGAGCCAC	-0.109
TCCTCAGA	-0.12
CGCGCAAG	0.0599
AGCCGAGA	0.267
GGCACCCC	-0.0546
CTGTGACA	-0.312
CCGCTGCA	-0.0239
ATCAGGAA	-0.222
ATAGACGC	0.106
CTGCGAAG	-0.262
AACAGAGC	-0.144
AACATCTG	-0.281
AGAATCCG	0.269
AATCTTCT	-0.0433
TCGGGAGA	0.117
CTGTCTTA	-0.0346
AGACACGG	0.0548
CGACTAGC	0.0247
ATGCCCCA	-0.0732
CAAGGAGG	-0.169
CTACCCCC	0.192
GAGCCGCA	-0.0121
CCGACCGA	0.422
GGACTATA	0.172

Sequence	PBM E-score
AGGTACCG	0.116
CGAATTGC	0.0559
TCGCGGAA	0.222
GAATCTGC	0.182
GGACTGCC	-0.0273
ATTAGCAC	-0.0482
AAATCCAT	0.132
AGCTACAG	-0.123
ATGTGAAT	-0.0535
AGTTTACA	-0.0535
AAAGAAGC	-0.0509
CCTCCTTC	-0.0415
CCAAGCGC	0.105
ACAGCGCA	-0.171
ATCCGGCG	0.355
ATACGGAT	0.204
AAGTAGCC	0.115
GACGTGGA	-0.126
AGAGAGAC	-0.258
GCGAATTA	0.0259
GAGCTTGC	-0.171
ACAATTGG	-0.212
AACATTTC	-0.235
CCGACTCC	0.27
CTTGCGTC	-0.14

Sequence	PBM E-score
TAAAAGGA	-0.0643
GGTAATCA	0.022
TCGTCAGA	-0.113
AGGATAGG	-0.126
GAGTTATA	-0.0538
GGCGAGGA	0.0118
CCCTTTTA	-0.177
GCCATACC	0.0518
CGGACTAG	0.305
CGTTAGAG	0.105
ATGTGGTA	-0.0905
GCGAGAGA	-0.108
ACTGATCT	-0.125
ACCTCCAC	-0.00483
GAGGACAC	0.0755
GCTATCCA	-0.0628
ACATGCGA	-0.118
GCGGCAAC	0.00981
ATTCTTAA	-0.00994
CCGGGAAC	0.322
CAGCACTC	-0.158
ATCGGGTC	0.343
GATTTTGC	-0.0335
GCGACACC	0.0843
ACCCCTTC	-0.236

Sequence	PBM E-score
CATCGCCG	0.293
CCACCGGC	0.233
CGTCTTTA	0.0516
CCCTTGCC	-0.0918
CTCGTAAC	-0.0461
GTAAGAAC	0.03
AATTTCAA	-0.137
ACAAACCT	-0.181
CCATCAGG	-0.154
ATATAAGG	0.141
TATCACGA	-0.152
CGGGCACG	0.296
AACCTTCT	0.0295
GTAATATA	-0.0119
ACGTCGCA	-0.191
ACTGGGCA	-0.125
GTATGCTA	0.0377
CCGCTAGG	0.185
CACCACAA	-0.117
GTGTCCCA	0.0086
CAGCGAAC	-0.179
GGAGGCAA	0.0882
AGGTCGAG	-0.325
GCGCAATA	0.0628
ATCAGGGG	-0.217

Sequence	PBM E-score
AGAAGGGC	-0.121
GGCACATA	-0.121
CGTTGCCA	0.0478
GGGCTGAA	-0.0489
ATCGATTC	-0.0601
AGAGATAA	0.00783
CACACACG	-0.0462
ATCGGCTG	0.3
CGTGGACC	0.129
AGTTTTTC	0.0886
AACGCAGA	-0.0566
GCAACCAA	-0.187
CTTCCCAC	-0.149
GGAACACC	0.165
AGAACTAA	0.076
ATCGACGG	0.163
GACCCTCC	0.0636
TCAACGCA	-0.178
GACGGTGA	-0.0624
CGTAGAGC	-0.136
CCATTCGA	-0.0986
CATAATTA	-0.0485
CTCCGAGC	0.386
AAGATGTA	-0.226
ACGGGTTC	0.0166

Sequence	PBM E-score
ACCCTAAT	-0.35
GGCTCTAC	0.0591
TAAGACAA	0.0754
CCGCCGCA	0.135
CTCTCATC	-0.159
CCCGGATA	0.325
CGTCCACA	-0.0864
CGGATCAA	0.35
CGGACACC	0.218
AGCGGAGC	0.223
GGGCGTTA	0.147
GTCCGACA	0.38
TAGTCTGA	-0.183
ATGATTTA	-0.1
ACACCGAC	0.268
GGCAAATA	0.2
CATCGGGA	0.223
CAGGAGGG	-0.258
GTCCCATA	-0.186
GAATTAGC	0.099
GAGATCAC	-0.0988
AGAAGTAC	-0.253
AAAGTAAT	0.0112
AACACACA	-0.289
TGCGCAAA	0.0697

Sequence	PBM E-score
TCACAGCA	-0.165
GTCGTGAA	-0.157
TGCCAGCA	-0.12
GCGGTACC	0.161
CTTGTTCA	-0.121
ATAACGAA	0.0537
CCGTACGG	0.0145
AAAGTATA	-0.0298
ACAGTGGG	-0.082
ACCTCCGC	0.248
CAGACCAA	-0.137
CAAGGTTA	-0.0309
AATAATTG	-0.0996
CAAGCACA	-0.332
AGCGACCG	0.0527
AACGGCGG	0.294
CAACAGGG	-0.0727
TAAGAATA	-0.141
ATGCGTCG	-0.0779
AGAATAAA	-0.0166
ACAGAGTG	-0.218
AATGATAT	-0.0455
GTGCCTAA	-0.21
GACGGCTA	-0.0322
AGGGACAT	-0.0657

Sequence	PBM E-score
GCAATAGC	0.0973
CGCAATGA	-0.103
ATCAGTAA	-0.0379
GGTCGACC	0.348
CTTCTTCA	-0.292
CATGCCCG	0.242
GCAAAATA	-0.0583
AACGGCCC	0.15
CTAATGAC	-0.301
CCAGAAAA	-0.159
CCGTGGTA	-0.0122
CATCATAA	-0.067
CCGATAGA	0.405
CCTTTAGA	-0.213
CAACAACG	-0.209
CAGTAAAA	-0.088
ATCGTGAA	-0.0494
ACGGTATC	0.113
ATTCATAA	-0.0791
CCGCACAG	0.118
CGGCAAGC	0.152
CCCTGGCG	-0.132
CTCGTGCC	-0.0817
AGGCAATG	-0.17
CCATGACA	-0.186

Sequence	PBM E-score
CTGCTGGA	-0.231
ATAAACTC	0.134
ACCTATTA	-0.146
ACAAGCCA	-0.195
CAGTATCG	0.115
CGACATTC	-0.0511
AGAGTACT	-0.169
AGGGTGAG	-0.217
CAACTTGG	-0.0913
AGGGTGAC	-0.116
GACCTTAA	-0.0906
CTATATCC	0.202
ATATCCTC	0.0211
AACTATCT	-0.0682
GAGGTACA	-0.101
AAGGGGTC	-0.31
GCAGACGC	-0.0992
CTCGTCGA	-0.251
GCCTCCCC	-0.0953
